The whole screen tested about 220,000 compounds, of which about 5,700 (2.6%) were called active. The inconclusive results got no clear call from the source; some entries with a clear call stand among them for comparison. Calls come from the whole dose curve; as a rule, active = well fitted inhibition curve with a large enough effect; inconclusive = small, poorly fitted or top-dose-only effect; inactive = no such curve, though single readings can be large or run the other way. Where the call is inconclusive, the potency comes from a doubtful curve fit.
Molecular target: Lysine-specific demethylase 5B (Homo sapiens) (UniProt Q9UGL1)
Assay: Primary screen for KDM5B Histone Demethylases FDH-coupled qHTS; note: nearly all actives have a fitted effect of over 70% in size
Conditions: FDH-coupled NADH fluorescence (FDH is formaldehyde dehydrogenase); series mostly up to 57.7 µM
Procedure, shortened: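 Coupled FDH/NAD⁺ fluorescence readout. KDM5BΔAP 200 nM final; compound titration, 10 min RT preincubation; substrate mix 12.5 µM H3K4me3, 25 µM 2-OG, 50 µM Fe(II), 100 µM ascorbate, 0.25 mM NAD⁺, 0.25 U/mL FDH; ΔRFU over 30 min.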
Potency is the fitted concentration of half-maximal effect; tags give direction and shape of the fitted curve.

Sequence of UniProt Q9UGL1 (Q9UGL1 whole entry, looked up): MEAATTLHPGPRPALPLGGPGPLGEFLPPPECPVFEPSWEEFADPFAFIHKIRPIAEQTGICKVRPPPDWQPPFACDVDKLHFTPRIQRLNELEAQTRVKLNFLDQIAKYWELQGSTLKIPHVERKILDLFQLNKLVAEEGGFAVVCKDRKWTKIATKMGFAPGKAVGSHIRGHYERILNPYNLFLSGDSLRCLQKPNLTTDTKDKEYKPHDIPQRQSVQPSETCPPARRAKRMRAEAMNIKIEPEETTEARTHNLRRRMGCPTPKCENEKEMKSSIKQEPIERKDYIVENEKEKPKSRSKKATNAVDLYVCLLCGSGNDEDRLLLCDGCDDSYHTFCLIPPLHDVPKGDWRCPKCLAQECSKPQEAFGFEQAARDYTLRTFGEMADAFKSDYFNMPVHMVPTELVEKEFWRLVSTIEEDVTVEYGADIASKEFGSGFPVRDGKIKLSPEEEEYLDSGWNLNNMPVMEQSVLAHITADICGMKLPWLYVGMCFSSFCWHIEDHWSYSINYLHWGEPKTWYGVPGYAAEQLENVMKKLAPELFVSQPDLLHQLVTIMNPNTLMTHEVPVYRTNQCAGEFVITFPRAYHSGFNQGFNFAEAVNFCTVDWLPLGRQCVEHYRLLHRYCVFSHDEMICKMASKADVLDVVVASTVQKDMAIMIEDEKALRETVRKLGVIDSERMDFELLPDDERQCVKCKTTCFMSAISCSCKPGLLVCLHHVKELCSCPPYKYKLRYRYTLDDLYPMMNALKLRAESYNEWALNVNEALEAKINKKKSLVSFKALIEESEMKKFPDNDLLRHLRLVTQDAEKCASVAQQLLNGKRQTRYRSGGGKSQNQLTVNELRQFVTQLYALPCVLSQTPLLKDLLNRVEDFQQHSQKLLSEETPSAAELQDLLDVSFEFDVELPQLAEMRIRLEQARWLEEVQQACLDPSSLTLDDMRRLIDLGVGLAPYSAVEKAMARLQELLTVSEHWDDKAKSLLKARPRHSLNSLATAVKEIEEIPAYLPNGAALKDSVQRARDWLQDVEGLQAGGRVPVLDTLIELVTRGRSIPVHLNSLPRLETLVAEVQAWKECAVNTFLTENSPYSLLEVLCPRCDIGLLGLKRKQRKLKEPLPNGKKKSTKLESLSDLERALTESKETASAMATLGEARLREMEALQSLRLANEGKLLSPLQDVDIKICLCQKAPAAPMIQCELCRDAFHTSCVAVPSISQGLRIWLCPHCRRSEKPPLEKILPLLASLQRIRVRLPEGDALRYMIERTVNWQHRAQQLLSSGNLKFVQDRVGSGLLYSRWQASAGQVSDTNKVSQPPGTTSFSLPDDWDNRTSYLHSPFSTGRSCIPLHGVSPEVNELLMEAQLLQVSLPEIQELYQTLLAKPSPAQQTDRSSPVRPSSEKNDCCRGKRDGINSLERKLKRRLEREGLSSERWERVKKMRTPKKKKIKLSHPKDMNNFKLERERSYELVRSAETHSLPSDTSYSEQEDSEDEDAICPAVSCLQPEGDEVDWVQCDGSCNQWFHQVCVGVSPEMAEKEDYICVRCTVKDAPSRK

SMILES	Potency
CCCCNC(=O)c1ccc2c(c1)n(Cc1ccc(F)cc1)c(=O)c1ccnn12	active: 22.4 µM
COC(=O)COc1ccc2c(C)c(-c3ccccc3)c(=O)oc2c1	inconclusive: 22.4 µM [inhibitor, single point]
Cn1c(=O)cc(C(=O)NC2CCCc3c2[nH]c2ccccc32)c2ccccc21 (stereo not drawn)	inconclusive: 11.2 µM [inhibitor, partial curve]
C#CCN[C@@H]1C[C@@H]2c3[nH]c4ccccc4c3C[C@@H](C(=O)OC)N2[C@H](c2ccc(F)cc2)C1	inconclusive: 39.8 µM [inhibitor, partial curve, poor fit]
COCCNC(=O)C(NC(=O)c1cccc(OC)c1)C1CCN(C(=O)COC)CC1 (stereo not drawn)	inactive
O=[S+]([O-])(c1cccs1)N1CCCN(c2nc3ncccc3o2)CC1	inconclusive: 20 µM [inhibitor, partial curve, poor fit]
COc1cccc(-c2nc3c(C#N)c[nH]n3c2NC2CCCCC2)c1OC	inconclusive: 14.1 µM [inhibitor, partial curve, poor fit]
CC(Oc1ccc2ccc(=O)oc2c1)C(=O)N1CCCCCC1 (stereo not drawn)	inconclusive: 22.4 µM [inhibitor, partial curve, poor fit]
COc1ccc2[nH]c(=O)c(CCC(=O)NC(C)c3cn(C)nc3C)cc2c1 (stereo not drawn)	inconclusive: 28.2 µM [inhibitor, partial curve, poor fit]
Cc1cc(C)cc(OC(C)C(=O)Nc2ccc3nsnc3c2)c1 (stereo not drawn)	inconclusive: 25.1 µM [inhibitor, single point]
COc1cc(C(=O)NC(C)Cn2cccn2)cc(Cl)c1OC (stereo not drawn)	inactive
CNc1nc(N2C[C@H]3CN(CCO)C[C@@]3(C(=O)O)C2)nc2c1CCC2	inconclusive: 7.94 µM [inhibitor, partial curve, poor fit]
COc1ccc(NC(=O)N2CCc3c([nH]c4ccc(OC)cc34)C2c2ccc(OC)cc2)cc1 (stereo not drawn)	inconclusive: 25.1 µM [inhibitor, single point]
Cc1oc(C(O)c2ccccc2F)nc1C(=O)N1CCN(c2ccccn2)CC1 (stereo not drawn)	inconclusive: 35.5 µM [inhibitor, partial curve, poor fit]
COc1cccc(NC(=O)CNC(=O)c2ccc(OC)c(OC)c2)c1	inactive
Cc1cccc(NC(=O)CSc2nnc(CC3CCS(=O)(=O)C3)n2C)c1 (stereo not drawn)	inactive
CCNc1ncc(C(=O)N[C@H](c2cccs2)C2CC(O)C2)cn1 (stereo partly drawn)	active: 22.4 µM
CN(C)C(=O)c1cccc(C(F)(F)F)c1	inactive
Cc1ccc(CN2C(=O)[C@@H]3C[C@@H](O)CN3C3(CN(Cc4cccnc4)C3)C2=O)o1	inconclusive: 39.8 µM [inhibitor, partial curve, poor fit]
O=S(=O)(c1ccccc1)c1nnn2c1nc(NC1CC1)c1ccccc12	inactive
COc1ccccc1N1CCN(S(=O)(=O)c2cc3[nH]c(=O)c(=O)[nH]c3cc2C)CC1	inconclusive: 39.8 µM [inhibitor, single point]
O=C(NC1CCOC2(CCOCC2)C1)c1ccc(Cl)s1 (stereo not drawn)	inactive

SMILES	Potency
CSc1cccc(Nc2cc(C(=O)NCCCN(Cc3ccccc3)C(C)C)c3ccccc3n2)c1	inconclusive: 35.5 µM [inhibitor, partial curve, poor fit]
O=C1CCN(C(=O)CCc2c[nH]c3ccccc23)CCCC(C(=O)NCc2ccccc2)CCN1 (stereo not drawn)	inconclusive: 22.4 µM [inhibitor, partial curve, poor fit]
CCc1cc2c(CN3CCN(C(=O)C4COc5ccccc5O4)CC3)cc(=O)oc2cc1O (stereo not drawn)	inconclusive: 22.4 µM [inhibitor, partial curve, poor fit]
COCc1c(C(=O)N/N=C\c2ccccn2)nnn1-c1nonc1N	inconclusive: 17.8 µM [inhibitor, partial curve, poor fit]
COc1ccccc1C(=O)N1CCCN(c2nnc3cccc(C)n23)CC1	active: 25.1 µM
COc1ccc(NC(=O)c2ccc3c(c2)OCCN(c2ccccc2)C3)cn1	inconclusive: 39.8 µM [inhibitor, partial curve, poor fit]
Cc1nn(CC(=O)NCCCN2CCCCC2)c(=O)c2nc(-c3ccccc3)sc12	active: 31.6 µM
CS(=O)(=O)N1CCC(C2CCN(C(=O)c3ccc4c(c3)OCO4)C2)CC1 (stereo not drawn)	inactive
CCN1c2cc(C(=O)NCCc3ccccc3)ccc2C(=O)N2CCCCCC21 (stereo not drawn)	inconclusive: 28.2 µM [inhibitor, partial curve, poor fit]
COc1ccc(C)cc1NC(=O)[C@H]1CCC[C@H]1NC(=O)c1cnc(C)cn1	inactive
COc1ccc(C(=O)C(C)OC(=O)c2ccc(C(C)=O)s2)cc1 (stereo not drawn)	inactive
NC(=O)c1ccccc1NCC(=O)Nc1ccccc1C(=O)NC1CCCC1	inconclusive: 28.2 µM [inhibitor, partial curve, poor fit]
Cc1ccccc1Nc1cc(C(=O)NC2CCCCC2)c2ccccc2n1	inconclusive: 8.91 µM [inhibitor, partial curve, poor fit]
COc1ccc(-c2c(NC(=O)C3CCCCC3)oc3ccccc3c2=O)cc1	inactive
CCOC(=O)c1c(NC(=O)C(C)C)sc(Cc2ccc3c(c2)OCO3)c1C	inconclusive: 31.6 µM [inhibitor, single point]
CC(C)(C)CC(=O)N[C@H]1C[C@H]2C(=O)Nc3ccc(-c4cccs4)cc3C(=O)N2C1	active: 17.8 µM
COCCN1C(=O)c2ccccc2C(C(=O)NCc2ccccc2)C12CCCC2 (stereo not drawn)	inactive
COc1ccc(NC(=O)Cn2c(=O)c3cccn3c3ccccc32)cc1OC	inactive
COC(=O)c1cccc2c1CCCN2C(=O)c1cnc2c(cnn2C(C)C)c1	inactive
COc1ccc(N2CCCC2)c(NC(=O)COc2ccccc2)c1	inconclusive: 39.8 µM [inhibitor, single point]
Cc1cccc(-c2cccc3c4c([nH]c23)[C@@H]2C[C@H](N(C)C(=O)Nc3ccccc3C)[C@H]([C@H](C)O)C(=O)N2CC4)c1	inconclusive: 25.1 µM [inhibitor, partial curve, poor fit]
